The whole screen tested about 48,000 compounds, of which about 550 (1.1%) were called active. About 4% were inconclusive and are not listed. Cut-off read from the data, not from the text of the source: active = potency below about 15 µM; inconclusive = mostly about 16 µM to 33 µM; inactive = weaker than that. This is one part of the list.
target: Lysosomal acid glucosylceramidase (Homo sapiens) (UniProt P04062); assay: Glucocerebrosidase; details: purified enzyme, resorufin glucoside fluorescence (screen aimed at inhibitors), 20 min;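 note: the screen sought inhibitors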
Summary of the method: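 Wild-type enzyme at 0.2 nM final in 50mM citric acid/KH2PO4, 10mM sodium taurocholate, 0.01% tween-20, pH 5.9, with resorufin beta-D-glucopyranoside at 30 uM final. Compounds titrated, 20 min at RT, red fluorescence read; AC50 from titration.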
Potency is the fitted concentration of half-maximal effect.

Sequence of UniProt P04062 (P04062 whole entry, looked up): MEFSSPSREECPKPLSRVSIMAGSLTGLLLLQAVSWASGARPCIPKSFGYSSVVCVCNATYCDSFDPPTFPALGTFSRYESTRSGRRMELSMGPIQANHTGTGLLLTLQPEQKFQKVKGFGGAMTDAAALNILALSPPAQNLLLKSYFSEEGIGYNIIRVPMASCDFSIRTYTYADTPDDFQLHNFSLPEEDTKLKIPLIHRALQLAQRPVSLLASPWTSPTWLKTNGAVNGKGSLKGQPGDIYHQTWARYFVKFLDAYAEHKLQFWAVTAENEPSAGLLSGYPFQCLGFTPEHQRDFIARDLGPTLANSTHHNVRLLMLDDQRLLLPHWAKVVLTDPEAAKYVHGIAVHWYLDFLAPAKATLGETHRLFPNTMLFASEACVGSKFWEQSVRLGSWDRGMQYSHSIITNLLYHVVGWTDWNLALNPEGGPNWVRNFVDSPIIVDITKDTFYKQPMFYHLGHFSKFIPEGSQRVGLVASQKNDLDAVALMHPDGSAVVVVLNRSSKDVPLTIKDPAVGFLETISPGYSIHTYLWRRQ

Potency, inactive:
Nn1c(COc2ccccc2)nnc1SC(F)F > 76.9 µM
COc1cccc2cc(C(=O)N3CCN(C(=O)c4ccco4)CC3)c(=O)oc12 > 76.9 µM
COc1cc(OC)cc(C(=O)N2CCN(C(=O)c3cccc(F)c3)CC2)c1 > 76.9 µM
COc1cccc(Nc2ncccc2C(=O)NCc2ccccc2)c1
COCCC(=O)N(Cc1ccc2c(c1)OCO2)C(C(=O)NC1CCCCC1)c1ccncc1 (configuration not stated) > 76.9 µM
C=CCc1c(C)[nH]c2ccc(C)cc2c1=O > 76.9 µM
Cc1ccc2[nH]c(=O)c(CN(Cc3cccnc3)Cc3nnnn3CCN3CCOCC3)cc2c1 > 76.9 µM
COC(=O)c1cc2ccsc2n1Cc1cc(=O)n2ccccc2n1
CCOc1cc(C(=O)N(C)Cc2cc3cc(OC)ccc3[nH]c2=O)cc(OCC)c1OCC > 76.9 µM
COCCN(CCOC)S(=O)(=O)c1ccc(C(=O)Nc2nc(C)c(C(C)=O)s2)cc1 > 76.9 µM
COc1ccc(CC(=O)Nc2ccc(-c3nnc(-c4ccc(C)cc4)o3)cc2)cc1 > 76.9 µM
Cc1cc(C(=O)OCC(=O)N2c3ccccc3CC2C)c(C)o1 (configuration not stated) > 76.9 µM
Cc1ccc2cc3c(NC(=O)c4ccco4)nn(C)c3nc2c1 > 76.9 µM
Cc1ccc(-c2nn(C)c(=O)c3ccccc23)cc1CNS(C)(=O)=O > 76.9 µM
COC(=O)CSc1cc(SCC(=O)OC)c(C#N)c(SCC(=O)OC)c1 > 76.9 µM
CCOC(=O)c1snc(C(=O)NC2CCCCC2)c1N > 76.9 µM
CCOC(=O)Nc1cccc2ccccc12 > 76.9 µM
COc1ccccc1NC(=O)CSc1nnnn1Cc1ccccc1 > 76.9 µM
FC(F)(F)Oc1ccc(Nc2nc3ccccc3o2)cc1 > 76.9 µM
Cn1c(=O)c(=O)n(C)c2cc(S(=O)(=O)N3CCC(N4CCCCC4)CC3)ccc21 > 76.9 µM
Cc1cc(C)c2c3c(sc2n1)C1(CCSCC1)C(C#N)=C(N)O3 > 76.9 µM
CCc1c(O)nc(SCC(=O)NCc2ccco2)[nH]c1=O > 76.9 µM
COc1ccc(Br)cc1CNC(=O)CCc1nc(-c2ccccc2F)no1 > 76.9 µM
CN1CC2(C(=O)c3ccccc3)CN(C)CC(C(=O)c3ccccc3)(C1)C2 > 76.9 µM
CC1CCCC(NC(=O)C2CCN(S(=O)(=O)N3CCOCC3)CC2)C1C (configuration not stated)
CN(CCNC(=O)C1CCN(S(=O)(=O)c2cnc[nH]2)CC1)Cc1ccccc1 > 76.9 µM
O=C(NCCc1ccc(Cl)cc1)C1CCN(c2cnccn2)CC1 > 76.9 µM
Cc1ccc(-n2c(CSc3nc(C)cc(C)n3)nnc2SCC(=O)Nc2nccs2)cc1 > 76.9 µM
COc1ccc2nc(NC(=O)CSc3nc4cccnc4n3C)sc2c1 > 76.9 µM
COc1ccc(S(=O)(=O)Nc2ccc(NC(C)=O)cc2)cc1OC > 76.9 µM
COc1ccccc1CNC(=O)C(C)NS(=O)(=O)c1ccc(C)cc1 (configuration not stated) > 76.9 µM
O=C(Nc1ccccc1NC(=O)c1c(F)c(F)c(F)c(F)c1F)c1c(F)c(F)c(F)c(F)c1F > 76.9 µM
O=C(O)c1cccc(NC(=O)C23CC4CC(C2)CC(n2cnc(Cl)n2)(C4)C3)c1 > 76.9 µM
COc1ccc(-c2nnc3sc(-c4cccs4)nn23)cc1OC > 76.9 µM
Cc1cccn2c(=O)c3cc(C(=O)NCc4ccccn4)n(C)c3nc12 > 76.9 µM
CCC(C(=O)OC)n1cnc2c(nnn2-c2ccc(OC)cc2)c1=O (configuration not stated) > 76.9 µM
O=C(COC(=O)COc1ccccc1)Nc1ccccc1OC(F)F > 76.9 µM
CC1(C)CC(O)C(CCC(O)c2ccccc2)C(C)(C)N1 (configuration not stated) > 76.9 µM
CC(C#N)Sc1ncnc2sc3c(c12)CCC3 (configuration not stated) > 76.9 µM
COc1ccc(OC)c(S(=O)(=O)NCc2cn3cccc(C)c3n2)c1 > 76.9 µM
Cc1ccsc1C(=O)Nc1nnc(-c2ccco2)o1 > 76.9 µM
CC(=O)Nc1ccc(S(=O)(=O)CCC#N)cc1 > 76.9 µM
Cc1cc(C)n(-c2nc3ccccc3[nH]c2=O)n1 > 76.9 µM
Nc1ccc(SCCN2C(=O)c3ccccc3C2=O)cc1 > 76.9 µM
COc1cc(S(=O)(=O)N(Cc2ccco2)C2CCCC2)ccc1-n1cnnn1 > 76.9 µM
COc1ccc(OC)c(NC(=O)C23CCC(C)(C(=O)C2)C3(C)C)c1 (configuration not stated) > 76.9 µM
C[C@H](NC(=O)OC(C)(C)C)c1nnc(SCC(N)=O)o1 > 76.9 µM
C/C(=N\O)C1(C)N(O)C(C)(C)C(c2ccc(Br)cc2)=[N+]1[O-] (configuration not stated) > 76.9 µM
O=C(O)CSc1nnc(-c2cccnc2)n1Cc1ccccc1 > 76.9 µM
COc1ccc(CNC(=O)CCS(=O)(=O)c2cccc3nonc23)cc1 > 76.9 µM
Cc1cc(C)nc(NC(=O)c2c(-c3ccccc3Cl)noc2C)n1 > 76.9 µM
CCOC(=O)Cn1nc(-c2ccc(C)cc2)ccc1=O > 76.9 µM
O=C(Cn1cnc2sc(-c3ccccc3)cc2c1=O)NCc1ccco1 > 76.9 µM
CSc1nc2c(c(=O)n1-c1ccc(C)cc1)SCC2 > 76.9 µM
O=C(c1ccc2c(c1)OCO2)N1CCc2ccccc2C1 > 76.9 µM
Cc1cc(-c2nnc(SCc3cccnc3)o2)no1 > 76.9 µM
O=C(Nc1cc(C(F)(F)F)ccc1Cl)c1cc(C2CC2)on1 > 76.9 µM
CCc1ccccc1N(C(=O)c1cccs1)C1C=CS(=O)(=O)C1 (configuration not stated) > 76.9 µM
Cc1ccc(-c2ccc(=O)[nH]n2)cc1 > 76.9 µM
COc1ccc(N2CCN(C(=O)CSc3ncccc3-c3nc4ccccc4[nH]3)CC2)cc1 > 76.9 µM
COC(=O)c1sccc1NC(=O)c1cccnc1 > 76.9 µM
Cn1nnnc1SCC(=O)Nc1ccccc1N1CCCCC1 > 76.9 µM
CCOC(=O)C1CCCN(Cc2cccc(Cl)c2)C1 (configuration not stated) > 76.9 µM
COc1ccc(NC(=O)c2oc3ccccc3c2NC(=O)c2ccco2)c(OC)c1 > 76.9 µM
CCCCOc1ccc(-c2nnn(C(C)(C)C(=O)OC)n2)cc1 > 76.9 µM
CSCC[C@H](NC(=O)OC(C)(C)C)c1nnc(SCC(=O)Nc2c(C)cccc2C)o1 > 76.9 µM
Cc1ccc(NC(=O)CN(C)S(=O)(=O)c2cccc3nsnc23)cc1Cl > 76.9 µM
O=C(CCN1C(=O)c2ccccc2C1=O)N1CCN(c2ccccn2)CC1 > 76.9 µM
CCOC(=O)c1cnc2c(C(F)(F)F)cccc2c1N1CCOCC1 > 76.9 µM
C=CCn1c(SC(C)C(=O)NCc2ccc3c(c2)OCO3)nnc1C1CCCCC1 (configuration not stated) > 76.9 µM
CC(=O)Nc1ccc(N2S(=O)(=O)c3ccccc3S2(=O)=O)cc1
CCCCOC(=O)c1ccc(NC(=O)C2CCCO2)cc1 (configuration not stated) > 76.9 µM
O=C(c1cccc(S(=O)(=O)N2CCCC2)c1)c1nnc(-c2ccncc2)o1 > 76.9 µM
CCC1CCCCN1CCNS(=O)(=O)c1ccc2c(c1)CCN2C(C)=O (configuration not stated) > 76.9 µM
CCOc1cc2oc(=O)c3c(c2cc1Cl)CCC3 > 76.9 µM
CCC(C)NC(=O)C1CC(c2ccc(OC)cc2)=NO1 (configuration not stated) > 76.9 µM
COc1ccc(-c2ccc(SCC(=O)N3CCOCC3)nn2)cc1OC > 76.9 µM
O=C(CCc1nc2ccccc2s1)OCC(=O)N1CCN(C(=O)c2ccco2)CC1 > 76.9 µM
Cc1ccc(C)n1-c1ccc(C(=O)N2CCOCC2)cc1 > 76.9 µM
Cc1nc2sc3c(c2c(=O)o1)CCCC3 > 76.9 µM
CCCc1[nH]nc2c1C(c1ccncc1)C(C#N)=C(N)O2 (configuration not stated) > 76.9 µM
CCN(CC)CCCN(Cc1cc2cc(OC)ccc2[nH]c1=O)C(=O)Nc1ccccc1 > 76.9 µM
O=c1cc(CSc2nnnn2-c2ccccc2)[nH]c2[nH]n(-c3ccccc3)c(=O)c12 > 76.9 µM
Cc1cc(C)n(C(=O)c2cccc(S(=O)(=O)N3CCOCC3)c2)n1 > 76.9 µM
N#Cc1ccsc1NC(=O)c1ccccn1 > 76.9 µM
CCCCOc1ccccc1C(=O)NCC(=O)O > 76.9 µM
COC(=O)c1cccc2c1-c1ccccc1/C2=N/O > 76.9 µM
Cc1ccc(-n2nnnc2SCC(=O)Nc2ccccc2N2CCCCC2)cc1C > 76.9 µM
CCCCn1c(CN2CCN(C(=O)OCC)CC2)nc2c1c(=O)[nH]c(=O)n2C > 76.9 µM
CCC(C)(C)n1nnnc1C(c1cc2cc(OC)c(OC)cc2[nH]c1=O)N1CCc2ccccc21 (configuration not stated)
Cn1c(SCC(=O)c2ccc3c(c2)OCO3)nnc1-c1ccccn1 > 76.9 µM
CCOC(=O)N1CCN(C(=O)c2cn(CCOC)c(=O)c3c2c2ccccc2n3C)CC1 > 76.9 µM

From PubChem BioAssay AID360 (National Center for Advancing Translational Sciences (NCATS), 2006)
